# From the RNAGym collection of RNA variant scans (doi:10.7554/elife.90254)
# Read counts are not given, so values of variants with three or more changes are uncertain.
# B1: LINE1-full (parent)
# chain: UACGUAGGUGGUUUUCCCCUGAUAGUGCUAAGGGGGCCUGGAAGUUUGGACUGGGCAGAGCUCAACACAGCGUGGCAAAGUGGCUGUGGCUAGACUGCCUCUCUGGAUUCCUCGUCACUCAGCAGGGCAUCUCUGAGAGAAAUGCC
# Variants of: B1
# Test: self-cleavage, relative activity (ratio to wild type); higher = more cleavage; in vitro, sequencing; the parent is a self-cleaving ribozyme
row,Variant,self-cleavage
1,A42U U108C G122A A140U,1.2
2,G41U A65G U73A,0.02
3,A42U U81A A117G,1.97
4,A42G U96A U109C,0.19
5,U39C C56U G106U,0.06
6,A43G A78G A141G,1.2
7,A42G U119C A136G,1.98
8,A42G A94U A142G,0.28
9,A42G A50C G53A U112A A142G U143A C145A,0.86
10,A42G A94G U134C,0.44
11,U39G U45C U62C U132A,0
12,U39G U46A A69U U115C,0
13,U39C A77G G82A U87C A92G,0
14,A42G U104A C146U,0.92
15,A42U A69G A92G A124U A140U,0
16,A42G A78U U87C A124G,0.92
17,A42G G48A G49U U62A U134A,0.02
18,A43C U115C U134C C145A,0.92
19,A43G A129U A142G,1.53
20,A42G A77U C131U,1.37
21,A42G A50G A57U A117C U134A,0

row,Variant,self-cleavage
1,A42G U73C C118A A138G,2.21
2,A42G U73A G114A,1.02
3,A42G A79G G88A U102C U112C,0
4,A42G A69G G144A,0.24
5,A42G U62A A117U U143C,0.03
6,U39C G49A A78G U115G U119C,2.3
7,G41U A64G U81C A124G,0.08
8,A43G A79G U85A,0.04
9,U39C A77G C103A A117U,1.73
10,A43G A79G G83U U115C,0.83
11,G41U A78U U108C,2.14
12,A42G U73C U102A U132C,0
13,U39C U52C C76A U104C A117C,3
14,U39C U46C A67G,0.15
15,A43G A59G G114A A129G,0.18
16,A42G A57G A67G G74A,0.28
17,A42G G89A U102C,0.04
18,A43G A69G U132C,0.57
19,G41A G72U G75A G80C,0.65
20,A43G A107G U134C A142G,2.3
21,G41A C84U U87C U132C,0.04

row,Variant,self-cleavage
1,U39C G82A U108C,2.39
2,U39C A136U A140G,1.31
3,A42G A69G A121G,1.75
4,A42G A59U U109A,1
5,A42G A57G U62C,0
6,A42G U46C A77U,0.46
7,U39C U108C A124U,1.98
8,A42G U91A U96A,0.14
9,A42G A59U C131G,1.34
10,U39C U45C U115C,0.66
11,A43G C61U U73C U91C,0.04
12,G40A U62C A117U,0.04
13,A42G A65G A79U C116U,0.04
14,G40A A43G A67G,0.13
15,A43G A69G U73C,0
16,A42U A64G U85C A107G A141G,0
17,U39C A79U A124U U134C A141G,1.55
18,A43G A50C U115C,0.71
19,A42U A59G U87A A138G,0.05
20,U39C U45C A140G,1.54
21,U39C U73C C101U C128U A138G,1.95

row,Variant,self-cleavage
1,A43G A92G A141G,0
2,A43G A78U U85C U91C,0.17
3,A42G A129G U130C A140G,1.84
4,A42G A50G A67U A140U,0.21
5,A42G A107U A140G,1.48
6,A42G G53A C71A,0.22
7,U39C U52C U87A,0.06
8,A42G G70A A136G A138U,0.15
9,A42G U130C U132C A136G,0.77
10,A43G A67G U143C,0.44
11,A42G A65G A79G U112C,0
12,A42G U52C A57U,0.12
13,A42G C61U U81C,0.05
14,A42G U47A U134C,2.28
15,A42G U109A U143C,0.86
16,A42G U109A U143A,1.33
17,A42G U119C A124G,1.77
18,U39G G86A U112C A136G,0.15
19,U39G G72A U104C,0.84
20,A42G G88U A107G A117G,0.1
